30 molecules from the antibiotic and cytotoxicity screens of Wong et al. (2023) can be followed below.

The other results are listed elsewhere or left out.

The test system of the experiment is S. aureus RN4220. The experiment is described as follows: growth inhibition call (relative growth <= 0.2). Particulars: 50 µM.
As for `COc1ccc([Si](C)(C)[C@H]2[C@H](CCn3cc([C@H](O)c4ccccc4)nn3)O[C@@]3(C(=O)N(Cc4cccc(N5CCC5=O)c4)c4ccccc43)[C@@H]2C)cc1`, the growth inhibition call is “inactive”.

`O=C(Cc1ccccn1)NCC[C@@H]1CC[C@@H](NC(=O)CN2CCOCC2)[C@@H](CO)O1`: the growth inhibition call was “inactive”.

As to `C[C@@H]1CN([C@@H](C)CO)C(=O)c2cc(NC(=O)Nc3ccc(C(F)(F)F)cc3)ccc2O[C@@H](C)CCCCO[C@H]1CN(C)S(=O)(=O)c1cn(C)cn1`, the growth inhibition call is “inactive”.

Turning to `CCCNC(=O)N1CC[C@]2(CC1)CN([C@H](CO)c1[nH]c3cc(ccc3c12)OC)C(=O)CN1CCOCC1`, the growth inhibition call is “inactive”.

As for `C[C@@H]1CN([C@@H](C)CO)C(=O)Cc2cc(NC(=O)Nc3ccc(C(F)(F)F)cc3)ccc2O[C@H]1CN(C)C(=O)Nc1ccc2c(c1)OCO2`, the growth inhibition call is “inactive”.

In the case of `CC(C)Nc1ncnc(N)c1[N+](=O)[O-]`, the growth inhibition call is “inactive”.

On to `COc1ccccc1CNC(=O)C[C@H]1C[C@H]2c3cc(NC(=O)Cc4ccncc4)ccc3O[C@H]2[C@@H](CO)O1`, for which the growth inhibition call was “inactive”.

With `C[C@H]1CCCCO[C@H](CN(C)C(=O)NC2CCCCC2)[C@@H](C)CN([C@@H](C)CO)C(=O)c2cc(NS(=O)(=O)c3ccccc3)ccc2O1`, the growth inhibition call was “inactive”.

With `N[C@@H](C(=O)O)c1ccc(C(=O)O)c(O)c1`, the growth inhibition call is “inactive”.

Turning to `CO[C@@H]1CN(C)C(=O)c2ccc(NS(C)(=O)=O)cc2OC[C@H](C)N(C(=O)c2ccc3c(c2)OCO3)C[C@H]1C`, the growth inhibition call is “inactive”.

In the case of `C=CCC[C@@H](Cc1ccc(F)cc1)C(=O)OC[C@@H]1CCCN1C(=O)[C@@H](CC=C)CC(=O)N(CCO)Cc1ccccc1`, the growth inhibition call is “inactive”.

As to `C[C@H]1CCCCO[C@H](CN(C)C(=O)Nc2ccc(C(F)(F)F)cc2)[C@@H](C)CN([C@@H](C)CO)C(=O)c2cc(NS(C)(=O)=O)ccc2O1`, the growth inhibition call is “inactive”.

Take `CN1C(=O)c2cc(NC(=O)Cc3cccs3)ccc2OC[C@@H]2O[C@H](CC(=O)NCCc3ccncc3)CC[C@H]21`: the growth inhibition call is “inactive”.

As for `CCCN1C[C@H](C)[C@H](OC)CN(C)C(=O)c2ccc(NS(=O)(=O)c3cn(C)cn3)cc2OC[C@H]1C`, the growth inhibition call is “inactive”.

`C=CCn1c(=O)c2c(nc(NCCO)n2C)n(C)c1=O`: the growth inhibition call is “inactive”.

As to `COc1ccc2nc(Cl)sc2c1`, the growth inhibition call was “inactive”.

For the molecule `COCCNC(=O)C[C@@H]1CC[C@H]2[C@@H](COC[C@H](O)CN2S(=O)(=O)c2ccccc2F)O1`, the growth inhibition call is “inactive”.

For `Cc1ccc(S(=O)(=O)Nc2ccc3c(c2)C(=O)N([C@H](C)CO)C[C@@H](C)[C@@H](CN(C)Cc2ccc(C(=O)O)cc2)OCCCC[C@H](C)O3)cc1`, the growth inhibition call is “inactive”.

`COc1ccc(S(=O)(=O)N(C)C[C@H]2Oc3ccc(NS(=O)(=O)c4cccs4)cc3C(=O)N([C@@H](C)CO)C[C@H]2C)cc1`: the growth inhibition call is “inactive”.

Take `Cc1noc(C)c1NC(=O)N(C)C[C@H]1Oc2ccc(NC(=O)C3CC3)cc2CC(=O)N([C@H](C)CO)C[C@@H]1C`: the growth inhibition call is “inactive”.

In the case of `CN1CCN(C(=O)C[C@@H]2CC[C@H]3[C@@H](COC[C@@H](O)CN3CC3CCCC3)O2)CC1`, the growth inhibition call was “inactive”.

On to `Cn1nnc2c1[C@H](COCC1CC1)CNC2`, for which the growth inhibition call is “inactive”.

As for `C[C@H]1CCCCO[C@H](CN(C)S(=O)(=O)c2ccc(Cl)cc2)[C@@H](C)CN([C@@H](C)CO)C(=O)c2cc(NC(=O)c3ccccc3)ccc2O1`, the growth inhibition call was “inactive”.

Turning to `Cc1ccccc1S(=O)(=O)N1C[C@@H](O)COC[C@H]2O[C@@H](CC(=O)N3CCC(Cc4ccccc4)CC3)CC[C@@H]21`, the growth inhibition call was “inactive”.

For the molecule `CC(C)NC(=O)N(C)C[C@H]1Oc2cc(-c3ccccc3F)ccc2S(=O)(=O)N([C@H](C)CO)C[C@H]1C`, the growth inhibition call was “inactive”.

In the case of `C[C@H](CO)N1C[C@H](C)[C@H](CN(C)C(=O)Nc2cccc(F)c2)OCCCC[C@H](C)Oc2ccc(NC(=O)C3CCCCC3)cc2C1=O`, the growth inhibition call is “inactive”.

With `C[C@@H]1CN([C@H](C)CO)C(=O)c2cc(NC(=O)Nc3cccc4ccccc34)ccc2O[C@H]1CN(C)C(=O)NC1CCCCC1`, the growth inhibition call is “inactive”.

Take `C[C@H](CO)N1C[C@H](C)[C@@H](CN(C)Cc2ccc(C(F)(F)F)cc2)Oc2ccc(NC(=O)C3CCCCC3)cc2C1=O`: the growth inhibition call is “inactive”.

As for `C[C@@H]1CN([C@@H](C)CO)C(=O)c2cc(NS(=O)(=O)c3ccccc3)ccc2O[C@@H](C)CCCCO[C@H]1CN(C)Cc1ccc(C(F)(F)F)cc1`, the growth inhibition call is “inactive”.

With `Cc1ccc(S(=O)(=O)Nc2ccc3c(c2)C(=O)N([C@@H](C)CO)C[C@@H](C)[C@@H](CN(C)S(=O)(=O)c2ccc(F)cc2)O3)cc1`, the growth inhibition call is “inactive”.
